Screen size: about 350,000 compounds; about 9,900 (2.8%) were called active. The inconclusive results got no clear call from the source; some entries with a clear call stand among them for comparison. The call rests on the fitted dose curve; in most records, active means well fitted activation curve with a large enough effect; inconclusive means small, poorly fitted or top-dose-only effect; inactive means no such curve, though single readings can be large or run the other way. Potencies of inconclusive entries are left out as doubtful fits.
Assay: A quantitative high throughput screen for small molecules that induce DNA re-replication in MCF 10a normal breast cells. Further: nearly all actives have a fitted effect of over 50% in size.
Settings: MCF 10A DNA re-replication, Hoechst nuclear intensity, 48 h; series mostly up to 46.1 µM
For `CCc1ccc(-c2nc(CN3CCC(C(=O)NCc4ccccc4OC)CC3)c(C)o2)cc1`, the Potency was inconclusive [activator, partial curve, poor fit].
With `COCCN(C(=O)c1ccccc1F)c1nc(-c2ccc(OC)cc2)cs1` the Potency was inconclusive [activator, partial curve, poor fit].
For `COc1ccccc1-c1coc2cc(OC(=O)N3CCOCC3)ccc2c1=O`, the Potency was inconclusive [activator, partial curve, poor fit].
In the case of `CCCc1cc(C(=O)NC2CCCN(Cc3ccccc3F)C2)no1` (stereo not drawn), the Potency is reported as “inactive”.
In the case of `O=S(=O)(Nc1nc2ccccc2nc1N1CCN(c2ccccn2)CC1)c1ccc(Cl)cc1`, the Potency is reported as inconclusive [activator, single point].
In the case of `O=C(O)c1c(Cl)cccc1Nc1ccccc1`, the Potency is reported as inconclusive [activator, single point].
In the case of `O=C(NCCCn1ccnc1)c1cccc(S(=O)(=O)Nc2ccc(F)cc2)c1`, the Potency is reported as inconclusive [activator, partial curve, poor fit].
In the case of `N#Cc1ccc(OCCN2CCc3ccccc3C2)cc1`, the Potency is reported as inconclusive [activator, single point].
For `CC(C)(C)NC(=O)c1ccc2c(c1)C1C3CCC(C3)C1C(c1ccccc1)N2` (stereo not drawn), the Potency was inconclusive [activator, partial curve].
With `COc1ccc(NC(=O)N2CCCC(c3nc(-c4ccc(C(C)C)cc4)no3)C2)cc1` (stereo not drawn) the Potency was inconclusive [activator, single point].
For `Cc1cccc2c1-c1sc(C(=O)N3CCc4ccccc4C3)cc1CO2`, the Potency was inconclusive [activator, single point].
With `COC(=O)C1(CC2CC(c3ccncc3)=NO2)CCN(C(=O)OC(C)(C)C)CC1` (stereo not drawn) the Potency was inconclusive [activator, single point].
With `Clc1ccc(-c2csc(N/N=C\c3cccnc3)n2)cc1` the Potency was “inactive”.
With `c1ccc(NC2=NCCCCS2)cc1` the Potency was “inactive”.
For `O=C(c1c[nH]c2ccccc12)C(O)C(c1ccccc1)N1CCOCC1` (stereo not drawn), the Potency was “inactive”.
With `COc1ccc(-n2nc(C(=O)NCC(=O)NCc3ccco3)c3ccccc3c2=O)cc1Cl` the Potency was inconclusive [activator, partial curve, poor fit].
With `CC(=O)Nc1ccc(S(=O)(=O)Nc2cc(S(=O)(=O)N3CCCCC3)ccc2O)cc1` the Potency was inconclusive [activator, partial curve, poor fit].
In the case of `CCCCCOc1ccc(Cl)cc1CN1CCOCC1`, the Potency is reported as “inactive”.
For `Cc1ccc(-n2nc(C)c3c(C)c(CCC(=O)NCc4ccco4)c(C)nc32)cc1`, the Potency was inconclusive [activator, single point].
In the case of `N#Cc1cccc(NC(=O)CCN2C(=O)C3CCCCC3C2=O)c1` (stereo not drawn), the Potency is reported as “inactive”.
With `CCCc1ccc(Oc2cn[nH]c2-c2ccc(O)cc2O)cc1` the Potency was inconclusive [activator, single point].
In the case of `CC1CN(S(=O)(=O)c2ccc(C(=O)Nc3sccc3C(N)=O)cc2)CC(C)O1` (stereo not drawn), the Potency is reported as inconclusive [activator, single point].
With `O=C(CNS(=O)(=O)c1ccc2c(c1)OCCCO2)N1CCN(c2ccc(F)cc2)CC1` the Potency was inconclusive [activator, single point].
In the case of `O=C(NC(=S)Nc1ccccc1N1CCN(C(=O)c2ccccc2)CC1)c1cccs1`, the Potency is reported as “inactive”.
For `COc1cccc(-c2cc(C(F)(F)F)nc(NCc3ccco3)n2)c1`, the Potency was inconclusive [activator, single point].
With `C=CCN(CC=C)CCCOc1ccc(C)cc1OC` the Potency was inconclusive [activator, full curve, poor fit].
In the case of `C/C(N)=C(/C#N)C(=O)CSc1nnc(COc2cc(C)ccc2C)o1`, the Potency is reported as active: 18.4 µM.
For `COc1ccc(NC(=O)CN2CCC(NC(=O)C3CCCCC3)CC2)c([N+](=O)[O-])c1`, the Potency was inconclusive [activator, single point].
In the case of `NC(=O)Nc1cc(Cl)ccc1Cl`, the Potency is reported as “inactive”.
With `COc1cc(-c2nc(-c3cccc(C(F)(F)F)c3)no2)cc(OC)c1OC` the Potency was inconclusive [activator, partial curve].
With `CCC1CCCCN1CCCNC(=O)CCCOc1cc(=O)n(C)c2ccccc12` (stereo not drawn) the Potency was inconclusive [activator, single point].
For `COC(=O)[C@]1(C)CCC[C@@]2(C)C3CC[C@]4(OC(C)=O)C[C@@]3(CCC21)CC4=O` (stereo partly drawn), the Potency was inconclusive [activator, full curve, poor fit].
For `CCCCn1c(-c2ccc(C(C)(C)C)cc2)nc2cc3[nH]c(=O)c(C(C)C)nc3cc21`, the Potency was active: 18.4 µM.
In the case of `Cc1cccc(-c2nc(CSCC(=O)NCc3cccs3)c(C)o2)c1`, the Potency is reported as inconclusive [activator, partial curve, poor fit].
For `Fc1ccc(/C=C/c2nnc(-c3cccs3)o2)cc1`, the Potency was inconclusive [activator, partial curve, poor fit].
For `O=S(=O)(Nc1ccc(S(=O)(=O)Nc2cccc3ccccc23)cc1)c1ccccc1`, the Potency was inconclusive [activator, single point].
In the case of `Cc1ccc(C(NC(=O)c2cccc(S(=O)(=O)N3CCN(C)CC3)c2)c2ccccc2)cc1` (stereo not drawn), the Potency is reported as inconclusive [activator, single point].
With `c1ccc(CN2CCC3(CCCc4ccccc43)CC2)cc1` the Potency was “inactive”.
In the case of `Cc1nn(C)cc1C(C(=O)NC1CCCCC1)N(C(=O)c1cnccn1)c1ccc(Oc2ccccc2)cc1` (stereo not drawn), the Potency is reported as “inactive”.
With `CCOC(=O)N1CCN(C(=O)c2ccc3c(c2)N=C(C)c2cc(Cl)ccc2S3)CC1` the Potency was “inactive”.
With `COC(=O)c1ccccc1NC(=O)N1CCN(c2ccc(OC)cc2)CC1` the Potency was inconclusive [activator, single point].
In the case of `O=c1[nH]cnc2c1cnn2Cc1ccccc1Cl`, the Potency is reported as “inactive”.
With `C/C(Cc1ccccc1)=N\NC(=O)CNC(=O)Cc1ccccc1` the Potency was inconclusive [activator, single point].

From PubChem BioAssay AID624296 (National Center for Advancing Translational Sciences (NCATS), 2012)
Potency means the concentration at half of the fitted maximal effect; tags describe the fitted curve by direction and shape.
